Among all 44,000 compounds or so, about 340 (0.77%) were called active. Not shown: some 5% with an inconclusive outcome. Calls follow the shape of the dose curve; as a rule, active = well fitted inhibition curve with a large enough effect; inconclusive = small, poorly fitted or top-dose-only effect; inactive = flat fitted curve, though single readings scatter. Some of the results follow.
Assay: Acumen qHTS Assay for Inhibitors of the mTORC1 Signaling Pathway in MEF (Tsc2-/-, p53-/-) Cells: Sytravon;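 also: plate controls were DMSO for no effect and rapamycin for full effect; nearly all actives have a fitted effect of over 50% in size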
Settings: phospho-rpS6 immunofluorescence/PI, 24 h; series mostly up to 38.3 µM; activity change, negative = inhibition: at the top concentration
How it was run: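 Immunofluorescence of rpS6 phosphorylation in Tsc2-/-, p53-/- MEFs after 24 h compound exposure, normalized to propidium iodide signal. Activity is expressed as % positive cells, thresholded with 7.5 nM rapamycin.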

Activity change, negative = inhibition, inactive:
CCOC(=O)c1cc2c(=O)n3ccccc3nc2n(Cc2ccco2)c1=NC(=O)c1cccc(F)c1 3.86%
Cc1cc([N+](=O)[O-])ccc1NC(c1nnc(-c2ccccc2)o1)c1ccccc1F (stereo unspecified) -11.6%
CC(=O)N1CCc2cc(Br)cc(S(=O)(=O)CCC(=O)N3CCN(c4ccccc4)CC3)c21 -5.57%
Cc1nc2cc(C(=O)NC3CCCCCC3)ccc2n1-c1ccc(Br)cc1 2.55%
CC(C)c1ccc(NS(=O)(=O)c2ccc3[nH]cc(C(=O)NCC4CCCO4)c(=O)c3c2)cc1 (stereo unspecified) 1.73%
Cc1cc(-c2ccc(C)c(S(=O)(=O)NCCc3ccc(S(N)(=O)=O)cc3)c2)on1 5.55%
CCOc1ccc2nc(N3CCCC(C(=O)Nc4ccc(OC)c(Cl)c4)C3)sc2c1 (stereo unspecified) -15.7%
CN(C)S(=O)(=O)c1ccc2c(c1)N(CC(=O)Nc1ccc(F)cc1)C(=O)CS2 -14.4%
O=C(CSc1oc(-c2ccco2)nc1S(=O)(=O)c1ccc(Cl)cc1)c1ccc(Cl)cc1 -2.32%
Cc1ccc2oc(=O)c3cc(C(=O)N(Cc4ccccc4)C(C)C)sc3c2c1 -2.32%
COc1ccc(CNC(=O)CC2N=C3c4ccccc4N=C(SCC(=O)Nc4ccc(N(C)C)cc4)N3C2=O)cc1 (stereo unspecified) 3.98%
Cc1ccc(CN2c3ccccc3S(=O)(=O)c3ccccc32)cc1 13.5%
Cc1ccc(NC(=O)Cn2c(-c3ccc4c(c3)OCO4)cn(-c3ccccc3)c2=O)cc1 -6.57%
Cc1ccc2c(c1)c1c(c(=O)n(Cc3ccccc3)c(=O)n1CC(=O)Nc1ccccc1C)n2C 0.262%
COc1ccc(-c2c3c(=O)n(C)c(=O)n(C)c3c3c(-c4ccc(C)cc4)nc4ccccc4n23)cc1 6.25%
CCCCCNC(=O)C(=O)NCC(c1ccc2c(c1)OCO2)N1CCOCC1 (stereo unspecified) -3.1%
CCC(C(=O)Nc1cccc(C#N)c1)n1c(=O)c(-c2ccccc2NC(C)=O)nc2ccccc21 (stereo unspecified) -1.28%
Cc1ccc(CSc2nc(=O)c3c(n2C)NC(=O)CC3c2ccc(OC(C)C)cc2)cc1 (stereo unspecified) -1.04%
CCN1CCC(N(Cc2cccc(OC)c2)C(=O)Nc2ccc(C)cc2Cl)CC1 -0.887%
Cc1ccc(S(=O)(=O)Nc2cc3c(cc2N2CCOCC2)n(C)c(=O)n3C)c(C)c1 1.52%
COc1cc(NC(=O)c2cnn(-c3cccc(F)c3)c2C2CCNCC2)cc(OC)c1OC 4.2%
CCc1nnc(NC(=O)CSCc2cc(=O)c3ccc(C)cc3[nH]2)s1 -16%
Cc1cc(O)c(C(c2ccccc2Cl)N2CCN(c3ccccc3)CC2)c(=O)n1Cc1ccco1 (stereo unspecified) 4.68%
Cc1ccc(C)c(NC(=O)CCCn2nc(C)c3sc4ccccc4c3c2=O)c1 0.962%
COc1cc(CN(C(=O)COc2ccc(C)c(C)c2)c2ccccn2)cc(OC)c1OC -14.8%
COc1ccc(NC(=O)CN(Cc2ccccc2)S(=O)(=O)c2ccc3nc(C)sc3c2)cc1 -6.88%
CCCN(CCC)CCNC(=O)c1cc2c(-c3ccccc3F)nn(C)c2s1 -14.4%
CCN(CC)CCNC(=O)Cn1ncc2c([nH]c3ccccc32)c1=O -10.6%
CCCCN(CC)CCCNC(=O)c1cc2c(-c3ccc(OC)c(OC)c3)nn(C)c2s1 -16.2%
O=C(NCc1ccc(F)cc1)c1ccc(NC(=O)N2CC3CCCN3c3ccccc32)cc1 (stereo unspecified) -4.52%
COCCNC(=O)C1CCCN(S(=O)(=O)c2ccc3c(ccn3C)c2)C1 (stereo unspecified) 1.08%
CCOc1ccc(-c2cnc(NCc3ccc(OC)cc3OC)n2C)cc1 -0.817%
O=C1c2oc3ccc(F)cc3c(=O)c2C(c2cccc([N+](=O)[O-])c2)N1CCCN1CCOCC1 (stereo unspecified) 3.23%
Cc1ccc(NC(=O)c2cccn2-c2nnc(N3CCCCC3)s2)cc1Cl -1.41%
Cn1nc(C(=O)N2CCN(c3ccccc3F)CC2)c2c1-c1ccccc1SC2 -1.28%
Cc1ccc2nc(N(Cc3cccnc3)C(=O)C3COc4ccccc4O3)sc2c1 (stereo unspecified) -4.91%
Cc1ccc(CSc2cn(CC(=O)N3CCCCC3)c3ccccc23)cc1 -5.53%
CCc1ccc(CN(C(=O)c2cc3ccccc3oc2=O)C2CCS(=O)(=O)C2)cc1 (stereo unspecified) -1.72%
CC(=O)c1ccc(NC(=O)c2ncn(-c3ccccc3)n2)cc1 7.22%
COc1ccc(Cl)cc1NC(=O)CCC(=O)c1ccc(C)cc1 3.08%
COc1ccc(CNC(=O)COCc2cc(-c3cccs3)on2)cc1OC -0.204%
CCCCNC(=O)CCCn1c(=O)c2ccccc2n(Cc2ccccc2C)c1=O -16.2%
CCc1c(C)sc2c1CCN(Cc1ccc(F)cc1)C2c1ccccc1 (stereo unspecified) 0%
CCn1cc(C(=O)NCCc2ccccc2)c(=O)c2cc(S(=O)(=O)N(C)C3CCCCC3)ccc21 -0.432%
COc1ccc(-c2noc(-c3ccc(NCc4ccccc4OC)c([N+](=O)[O-])c3)n2)cc1 -16.8%
Cc1ccc(C2=Nc3ccccc3N(CC(=O)Nc3cccc(F)c3)C(=O)C2)cc1C -12%
CC(=O)c1[nH]c(C)c(C(=O)NCCc2ccc(C)cc2)c1C -14.8%
CC(=O)Nc1cccc(C(=O)NCc2ccc3c(c2)CCN3C(C)=O)c1 0.958%
CN(C)CCCNc1oc(/C=C/c2ccc(F)cc2)nc1C#N -5.97%
Cc1ccc(NC(=O)CCCn2c(=O)c3cccn3c3cccnc32)c(Cl)c1 -0.283%
O=c1oc2c3c(ccc2c2ccccc12)OCN(Cc1cccc(Cl)c1)C3 -15.9%
CCOc1ccccc1N(C)C(=O)C1CCCN(c2ncnc3onc(-c4ccc(F)cc4)c23)C1 (stereo unspecified) -8.4%
Cc1c(CCNC(=O)Cc2ccccc2)sc2nc(-c3ccc(F)cc3)nn12 -4.04%
Cc1cc(C)c(NC(=O)CSc2nccn2Cc2ccco2)c(C)c1 -10.3%
O=C(CN1CCN(Cc2ccc(Cl)cc2)C1=O)NCc1ccc(F)cc1 -8.73%
CCOc1ccc(CNC(=O)c2cc3c(=O)n(C)c4ccccc4c3s2)cc1 -1.32%
O=C(c1ccc2c(c1)OCCO2)N(Cc1cccnc1)c1nc2ccc(F)cc2s1 -0.464%
Cc1ccc(NC(=O)Cn2c(=O)n(Cc3ccco3)c(=O)c3ccccc32)cc1 4.41%
CCN(CC)CCCNC(=O)c1cc(-c2ccc(OC)c(OC)c2)on1 -2.7%
Cc1ccc(NC(=O)C2CCCN2S(=O)(=O)c2cccc3cccnc23)cc1 (stereo unspecified) -2.65%
Cc1cc(C)n2nc(CNS(=O)(=O)c3ccc(Cl)cc3)nc2n1 -1.96%
CC1CN(C(=O)N2CCC(C(=O)NC3CCCCCC3)CC2)c2cc(Cl)ccc2O1 (stereo unspecified) -4.75%
O=C(Cn1cc(SCc2cccc(Cl)c2)c2ccccc21)N1CCOCC1 -9.06%
COc1cc(C(=O)NC2CC(=O)N(c3cccc(F)c3)C2)cc(OC)c1OC (stereo unspecified) -2.02%
COc1ccc(NC(=O)c2ccco2)cc1NC(=O)COc1cc(C)cc(C)c1 -6.54%
CCC(=O)N1CCc2cc(Br)cc(S(=O)(=O)N3CCN(c4ccccc4)CC3)c21 -3.68%
CCc1nnc2c(NCc3ccc(F)cc3)nc3ccccc3n12 0.999%
COc1ccc(CNC(=O)C2CCCN(S(=O)(=O)c3ccc4c(c3)CCCN4C(C)=O)C2)cc1 (stereo unspecified) 2.31%
COc1ccccc1N1CCN(S(=O)(=O)c2ccc(F)c(C(=O)Nc3ccc(C)c(F)c3)c2)CC1 4.48%
CCOc1ccc2nc(N3CCCC(C(=O)Nc4ccc(Br)c(C)c4)C3)sc2c1 (stereo unspecified) 0.727%
COc1ccc2c(c1)NC(c1ccc(OCC(C)C)cc1)=NC(c1ccncc1)=N2 -4.73%
COc1ccc(CCNC(=O)c2cc(Sc3cccc(Cl)c3)nc3ccccc23)cc1OC 4.99%
COc1ccc2c(c1)CC(C(=O)N1CCC(C(N)=O)CC1)CO2 (stereo unspecified) -1.54%
COc1ccccc1N1CCN(C(=O)c2oc3ccccc3c2NC(=O)C(C)Oc2ccccc2)CC1 (stereo unspecified) 6.05%
Cc1ccc(C(C)C)c(OCCn2cc(C(=O)c3ccco3)c3ccccc32)c1 -4.88%
CCOc1ccc(-c2n[nH]c3c2C(c2ccccc2OC)N(c2ccc(Br)cc2)C3=O)cc1 (stereo unspecified) 2.03%
COc1cc2c(=O)n(Cc3ccccc3)c(=O)n(CC(=O)Nc3cc(C(F)(F)F)ccc3Cl)c2cc1OC 0%
O=C(Cn1cccc1C(=O)c1ccccc1)NCc1ccc(F)cc1 -2.12%
CN1C(C(=O)Nc2ccc(OC(F)(F)F)cc2)=CC(c2ccc3c(c2)OCO3)=NS1(=O)=O 0.958%
COC(=O)c1cc2oc(C)cc2n1Cc1c(C)cc(C)cc1C -8.16%
CCN(CC)c1ccc(NS(=O)(=O)c2ccc3c(c2)CCCN3C(C)=O)c(C)c1 -6.18%
CCc1ccc(N2CCn3c2nc2c3c(=O)n(Cc3cccc(C)c3)c(=O)n2C)cc1 6.89%
CCOC(=O)c1c(C)oc2ncnc(NCCc3ccccc3)c12 0.688%
COc1ccc(C2c3c(n(C)c4ccccc34)C(=O)N2CC(=O)Nc2ccc(Cl)cc2)cc1 (stereo unspecified) -10.9%
COc1cc2nc(SCC(=O)Nc3ccc(F)cc3)n3nc(CCn4c(C)nc5ccccc54)nc3c2cc1OC -15.8%
Cc1ccc(OC(=O)c2snnc2C)cc1C -1.15%
CCCN1CCN(CCNC(=O)Nc2cc(OC)cc(OC)c2)CC1 2.47%
Cc1ccc(NC(=O)C(=O)NCC(c2ccc3c(c2)OCO3)N2CCOCC2)c(C)c1 (stereo unspecified) -2.16%
O=C(CSc1ncc2c(n1)-c1ccccc1N(Cc1ccc(F)cc1)S2(=O)=O)c1ccc(Br)cc1 -2.07%
CC(C)c1ccc(OCc2cc(=O)n3c4c(sc3n2)CCCC4)cc1 3.32%
Cc1cccc(NC(=O)CSc2nc3ccc(NC(=O)c4cccs4)cc3s2)c1 -13.9%
COc1ccc(OCC(=O)Nc2cc(-c3cccc(Cl)c3)nn2-c2ccccc2)cc1 13.9%
CCc1ccc(Nc2cc(C)nc3nc(Cc4ccc(Cl)cc4)nn23)cc1 -19.2%
CCOC(=O)c1ccc(CSc2nnc3cc(C)c4ccccc4n23)cc1 -9.09%
COc1ccccc1NC(=O)CN(c1ccc(C(C)C)cc1)S(=O)(=O)c1c(C)noc1C 2.01%
O=C(NC1CCCCC1)c1ccc2c(c1)sc1nc(-c3ccccc3)cn12 1.42%
